Assay results reported in paper PMC10165274 (2023).

Target: N555-hRFC, N-terminal truncation variant of the human replication factor C clamp loader complex (human, UniProt P35251 1-1148; P35250; P40938; P35249; P40937, Limits not printed: N555 is taken by convention as deletion of RFC1 (p140) residues 1-555, BRCT domain removed. The vector initiator Met is not included. Assayed with ATP/Mg2+.)
Experiment: apparent Kd from RFC ATP hydrolysis

B1: PCNA-C148S (natural protein)
chain: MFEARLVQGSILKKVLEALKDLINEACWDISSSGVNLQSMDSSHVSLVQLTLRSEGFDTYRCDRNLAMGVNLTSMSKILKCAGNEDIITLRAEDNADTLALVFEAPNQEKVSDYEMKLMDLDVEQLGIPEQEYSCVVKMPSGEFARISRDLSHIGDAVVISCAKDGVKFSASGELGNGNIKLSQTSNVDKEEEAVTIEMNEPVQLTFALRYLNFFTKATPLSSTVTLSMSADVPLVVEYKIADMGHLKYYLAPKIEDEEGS
  Kd: 154 nM
